Assay results reported in PubChem BioAssay AID2147 (National Center for Advancing Translational Sciences (NCATS), 2009).
The whole screen tested about 230,000 compounds, of which about 3,600 (1.6%) were called active. Inconclusive results, whose numbers are uncertain, are shown with a selection of clear calls. The call rests on the fitted dose curve; in most records, active means well fitted inhibition curve with a large enough effect (not every such curve was filed as active); inconclusive means small, poorly fitted or top-dose-only effect, or another doubt; inactive means no such curve, though single readings can be large or run the other way. Where the call is inconclusive, the potency comes from a doubtful curve fit.

What follows are compounds tested against Lysine-specific demethylase 4E (Homo sapiens) (UniProt B2RXH2) (assay: qHTS Assay for Inhibitors of Human Jumonji Domain Containing 2E (JMJD2E)). Details: JMJD2E catalytic domain, FDH-coupled NADH fluorescence (FDH is formaldehyde dehydrogenase); series mostly up to 57.1 µM.
UniProt B2RXH2, sequence (B2RXH2 whole entry, looked up, the tested form may be a part): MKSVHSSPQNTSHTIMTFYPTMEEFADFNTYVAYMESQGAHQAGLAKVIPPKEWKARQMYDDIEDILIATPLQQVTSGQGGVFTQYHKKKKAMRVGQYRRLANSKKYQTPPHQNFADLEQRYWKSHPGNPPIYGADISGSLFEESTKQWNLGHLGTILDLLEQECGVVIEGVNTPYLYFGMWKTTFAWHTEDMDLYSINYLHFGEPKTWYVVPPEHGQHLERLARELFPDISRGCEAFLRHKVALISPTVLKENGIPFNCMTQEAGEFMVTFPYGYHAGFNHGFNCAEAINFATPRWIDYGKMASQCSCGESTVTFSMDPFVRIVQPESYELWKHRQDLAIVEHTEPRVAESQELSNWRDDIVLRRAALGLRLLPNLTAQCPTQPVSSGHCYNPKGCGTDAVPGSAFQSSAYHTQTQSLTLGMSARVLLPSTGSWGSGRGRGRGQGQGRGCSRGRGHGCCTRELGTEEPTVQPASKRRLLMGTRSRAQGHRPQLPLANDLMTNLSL
Further: nearly all actives have a fitted effect of over 50% in size.
Potency means the concentration at half of the fitted maximal effect; tags describe the fitted curve by direction and shape.

Question: Which Potency does the source give for `COc1cc2[nH]c(=S)nc(NCCC(C)C)c2cc1OC` here?
Answer: inconclusive: 39.8 µM [inhibitor, single point]

Question: With `COc1ccc(-n2ncc3c(N4CCC(C(N)=O)CC4)ncnc32)cc1` as the compound, how does the Potency read?
Answer: inconclusive: 39.8 µM [inhibitor, single point]

Question: `CCOC(=O)c1cc(CC)sc1NC(=O)CCC(=O)O` was tested. Which Potency did it give?
Answer: inconclusive: 39.8 µM [inhibitor, single point]

Question: Which Potency does the source give for `COc1ccccc1/C=C/C=N/NC(=O)CCn1cnc2ccccc21` here?
Answer: inconclusive: 39.8 µM [inhibitor, single point]

Question: With `COc1ccc2cc(C(c3nnnn3C(C)(C)C)N3CCc4ccccc4C3)c(=O)[nH]c2c1` (stereo not drawn) as the compound, how does the Potency read?
Answer: inconclusive: 25.1 µM [inhibitor, partial curve]

Question: How did the Potency turn out when `C=CCOC(=O)C1=C(C)NC(SCC)=C(C#N)C1c1ccc(Cl)cc1` (stereo not drawn) was run?
Answer: inconclusive: 35.5 µM [inhibitor, single point]

Question: Which Potency does the source give for `CC1CCCCN1S(=O)(=O)c1cccc(S(=O)(=O)N2CCOCC2)c1` (stereo not drawn) here?
Answer: inactive

Question: How did the Potency turn out when `CC(C)(C)c1ccc(-c2nnc3sc(-c4ccncc4)nn23)cc1` was run?
Answer: inactive

Question: `O=S(=O)(c1ccc(-c2csc(-c3cccnc3)n2)cc1)N1CCCCC1` was tested. Which Potency did it give?
Answer: inconclusive: 39.8 µM [inhibitor, single point]

Question: How did the Potency turn out when `CC(C)(C)c1cc[n+](/C(C(=S)Nc2ccccc2F)=C(/[O-])c2ccc3c(c2)OCCO3)cc1` was run?
Answer: inactive

Question: How did the Potency turn out when `CCOC(=O)c1c(C)[nH]c(C)c1C(=O)COC(=O)c1cc2ccccc2cc1OC` was run?
Answer: inconclusive: 31.6 µM [inhibitor, single point]

Question: Which Potency does the source give for `N#Cc1sc2nc(C3CC3)cc(-c3ccc(Cl)cc3)c2c1N` here?
Answer: inconclusive: 28.2 µM [inhibitor, partial curve]

Question: With `COc1ccc(-c2cccc(C(=O)NCC(=O)O)c2)cc1` as the compound, how does the Potency read?
Answer: inconclusive: 31.6 µM [inhibitor, single point]

Question: `O=C(NCc1ccco1)c1ccc(CNc2c(N3CCCCC3)c(=O)c2=O)cc1` was tested. Which Potency did it give?
Answer: inactive

Question: How did the Potency turn out when `CCN1C/C(=C\c2cccc(C)c2)c2nc3ccccc3c(C(=O)O)c2C1` was run?
Answer: inconclusive: 25.1 µM [inhibitor, partial curve]

Question: Which Potency does the source give for `Cn1c2ccccc2n2c(=O)c(Cl)c(-c3ccccc3)c(C#N)c12` here?
Answer: inconclusive: 25.1 µM [inhibitor, partial curve]

Question: How did the Potency turn out when `Cc1cc(=O)oc2cc(OC(C)C(=O)O)c(Cl)cc12` (stereo not drawn) was run?
Answer: inconclusive: 28.2 µM [inhibitor, partial curve]

Question: Which Potency does the source give for `Cc1ccc2cc(C#N)c(N3CCCN(S(=O)(=O)c4ccccc4)CC3)nc2c1` here?
Answer: inconclusive: 28.2 µM [inhibitor, partial curve]

Question: Which Potency does the source give for `Oc1ccc(-c2n[nH]c(=S)n2-c2ccc3c(c2)OCCO3)c(O)c1` here?
Answer: inconclusive: 25.1 µM [inhibitor, single point]

Question: Which Potency does the source give for `Cc1[nH][nH]c(=O)c1C(c1c(C)[nH][nH]c1=O)c1cn(Cc2ccc(F)cc2)c2ccccc12` here?
Answer: inconclusive: 3.16 µM [inhibitor, partial curve]

Question: For `CSC1=N/C(=C\c2ccccc2F)C(=O)S1`, which Potency is on record?
Answer: inactive

Question: How did the Potency turn out when `COc1ccc(-c2cc(C(F)(F)F)nc(S(=O)(=O)CCCC(=O)Nc3cccnc3Cl)n2)cc1OC` was run?
Answer: inconclusive: 35.5 µM [inhibitor, partial curve]

Question: For `Cc1ccc(NC(=O)/C=C/c2ccc3c(c2)OCO3)nc1`, which Potency is on record?
Answer: inconclusive: 7.08 µM [inhibitor, single point]

Question: For `CCNC(=O)COC(=O)c1cc(-c2ccco2)nc2ccccc12`, which Potency is on record?
Answer: inconclusive: 31.6 µM [inhibitor, partial curve]

Question: How did the Potency turn out when `Cc1sc2nc(CN3CCOCC3)nc(N3CCC(C(N)=O)CC3)c2c1C` was run?
Answer: inactive

Question: Which Potency does the source give for `Cc1cc(C)n2cc(CSc3nnc(-c4ccccc4)o3)nc2n1` here?
Answer: inconclusive: 35.5 µM [inhibitor, single point]

Question: How did the Potency turn out when `O=C(N/N=C/c1ccc(OC(F)F)cc1)c1ccc(Br)cc1` was run?
Answer: inconclusive: 20 µM [inhibitor, partial curve]

Question: How did the Potency turn out when `COCCCNC(=O)CN1CCN(Cc2ccc(Cl)cc2)C1=O` was run?
Answer: inactive

Question: How did the Potency turn out when `C(=N\Nc1ccc2ccccc2n1)/c1ccc2c(c1)OCO2` was run?
Answer: inconclusive: 28.2 µM [inhibitor, partial curve]

Question: With `COc1ccc(/C=C/C(=O)Nc2ccc(N3CCOCC3)cc2)cc1` as the compound, how does the Potency read?
Answer: inconclusive: 35.5 µM [inhibitor, single point]

Question: How did the Potency turn out when `O=C1CC(Sc2ncccn2)C(=O)N1c1ccccc1` (stereo not drawn) was run?
Answer: inactive

Question: `O=C(Nc1sc2c(c1-c1nc3ccccc3[nH]1)CCCC2)C1CC1` was tested. Which Potency did it give?
Answer: inconclusive: 28.2 µM [inhibitor, partial curve]

Question: `Cc1c(-c2nc(-c3ccc(C(F)(F)F)cc3)no2)n(C)oc1=O` was tested. Which Potency did it give?
Answer: inconclusive: 20 µM [inhibitor, partial curve]

Question: `CC1CCc2sc(C(=O)N/N=C/c3ccc([N+](=O)[O-])cc3)cc2C1` (stereo not drawn) was tested. Which Potency did it give?
Answer: inactive

Question: For `Cc1onc(-c2ccccc2)c1-c1csc(N/N=C/c2ccccc2Cl)n1`, which Potency is on record?
Answer: inconclusive: 39.8 µM [inhibitor, single point]

Question: How did the Potency turn out when `O=C(NC1CCCCC1)NC1CCCCC1` was run?
Answer: inconclusive: 35.5 µM [inhibitor, single point]

Question: With `CSc1ccccc1NC(=O)COc1ccc(Cl)cc1` as the compound, how does the Potency read?
Answer: inactive

Question: Which Potency does the source give for `CC(/C=N/NC(=O)c1cccs1)=C\c1ccco1` here?
Answer: inconclusive: 25.1 µM [inhibitor, partial curve]

Question: With `Clc1ccc(Cn2c(/C=C/c3ccco3)nc3ccccc32)cc1` as the compound, how does the Potency read?
Answer: inconclusive: 35.5 µM [inhibitor, partial curve]

Question: Which Potency does the source give for `COc1ccccc1-c1cc(-c2ccc(C)cc2)nc(SCc2nnc(-c3ccccc3)o2)c1C#N` here?
Answer: inconclusive: 10 µM [inhibitor, partial curve]

Question: How did the Potency turn out when `O=C(O)C1CC=CCC1C(=O)N1CCN(c2nc(-c3ccccc3Cl)c3cc(Br)ccc3n2)CC1` (stereo not drawn) was run?
Answer: inconclusive: 31.6 µM [inhibitor, partial curve]

Question: With `c1ccc(CNc2nc(-c3cccs3)nc3ccccc23)cc1` as the compound, how does the Potency read?
Answer: inconclusive: 31.6 µM [inhibitor, partial curve]

Question: How did the Potency turn out when `CCOC(=O)N1CCN(Cc2ccccn2)CC1` was run?
Answer: inconclusive: 39.8 µM [inhibitor, single point]
